# Results from US20240058446A1, “CHIMERIC TIM4 RECEPTORS AND USES THEREOF” (CERO THERAPEUTICS, INC., priority 2019, published 2024).
# B1: pCTX206: CD72-directed CAR (SEQ ID NO:87): sc02-004 scFv, IgG4 hinge, CD28 transmembrane and signaling domains, CD3ζ; expressed in T cells (protein)
# chain: MLLVTSLLLCELPHPAFLLIPAEVQLVESGGGLVQPGGSLRLSCAASGFTFSGYLMSWVRQAPGKGLEWVAVISYDGSNKYYADSVKGRFTISRDNSKNTLYLQMDSLRAEDTAVYYCARARRDTNLFDYWGQGTLVTVLEGTGGSGGTGSGTGTSELTQSPSSLSASVGDRVTIT[… about 80 residues …]FGQGTKVEIKRAAAESKYGPPCPPCPFWVLVVVGGVLACYSLLVTVAFIIFWVRSKRSRLLHSDYMNMTPRRPGPTRKHYQPYAPPRDFAAYRS[… about 120 residues …]
# modifications: pCTX206 CAR-GMSCFR signal peptide-sc02-004 scFv-IgG4 Hinge-CD28 TM-CD28 ICD-CD3z
# notes: expressed in T cells
# Test system: Jeko-1 (CD72+) cells
# Assay: CTX206 CAR-T co-culture with Jeko-1 cells, anti-CD19 staining of remaining target cells
# Assay type: cell-based
# Details: 96 hrs co-culture; 0.5:1, 1:1 and 2:1 E:T ratios; FIG. 6A
# Description: FIGS. 6A-6C. Activation markers expressed in CAR-T cells upon CD72-target cell-specific activation are shown. FIG. 6A. CTX206 CAR-T cells were cultured with Jeko-1 cells for 96 hrs at 0.5:1, 1:1, and 2:1 E:T ratios followed by staining with CD19 to detect remaining Jeko-1 cells. Plots were obtained by excluding dead cells. Red squares indicate residual Jeko-1 cells left in culture. FIG. 6B. CTX206 and CTX208 CAR-T cells were assessed for expression and specific upregulation of indicated markers in response to Jeko-1 (CD72+) cells. Activation markers CD25 and CD137 were co-stained with CD4 and CD8 antibodies. T cells transduced with pCTX control vector served as a negative control. FIG. 6C. Upregulation of CD137 was measured in CTX206 or CTX208 CAR-T cells upon Jeko-1 target cell co-culture. […]
# CD72 CAR-T cells were further characterized phenotypically and functionally in the context of CD72-target cell-specific activation. […] CTX206 and CTX208 CAR-T cells were assessed for expression and specific upregulation of CD25 and CD137 in response to Jeko-1 (CD72+) cells, as shown in FIG. 6B and FIG. 6C. […] Proliferation as associated with CD137 expression (FIG. 7) and CD25 expression (FIG. 8) in CTX206 or CTX208 CAR-T cells was evaluated 72 hours-post stimulation with Jeko-1 cells in the absence of cytokines. […] Cell Trace Violet dye dilution and anti-CD137 antibody staining were assessed by FACS. […]
molecule,measurement,value
B1,remaining Jeko-1 target cells (anti-CD19 staining),Dose dependent decreases in target cells
